Our source for the displacement values is PubChem BioAssay AID1240 (Sanford-Burnham Center for Chemical Genomics, 2008).

About 800 (1.6%) of roughly 50,000 compounds showed an effect of 50% or more. The list shows a part of the results.

This experiment addresses Bcl-2-like protein 10 (Homo sapiens) (UniProt Q9HD36). Description: TR3 peptide-Bcl-B binding displacers, biochemical primary FP assay, phenotype converters (AID 1240).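 Also: 0% = Bcl-B with tracer peptide and DMSO and 100% = tracer peptide lacking Bcl-B.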 The following applies: GST-Bcl-B / FITC-TR3 peptide fluorescence polarization; stronger effect = higher value; compound at 3.75 mg/L. In general terms: In fluorescence polarisation assays a small probe gives low polarisation when free and higher when bound to something large.
UniProt Q9HD36, sequence (Q9HD36 whole entry, looked up): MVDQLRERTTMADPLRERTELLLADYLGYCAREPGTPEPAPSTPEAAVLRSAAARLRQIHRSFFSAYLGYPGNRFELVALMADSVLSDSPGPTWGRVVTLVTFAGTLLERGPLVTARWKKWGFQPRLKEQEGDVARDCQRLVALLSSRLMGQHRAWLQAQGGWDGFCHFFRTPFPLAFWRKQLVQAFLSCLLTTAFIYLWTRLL
Consider `CCOC(=O)CN1C(=O)/C(=C2\SC(=O)NC2=O)c2ccccc21`, for which the displacement was -4.7%. The same measure for `O=C1CC(C(F)(F)C(F)(F)C(F)(F)C(F)(F)F)=Nc2ccccc2N1`: -24.2%; for `COc1ccc(NC(=O)c2ccc(Nc3nnc(C)c4ccccc34)cc2)cc1`: -12.4%; for `CC(=O)NCCOc1ccc(C(=O)O)cc1`: 4.9%. The same measure for `O=C1C(=O)N(CCCn2ccnc2)C(c2cccc([N+](=O)[O-])c2)/C1=C(\O)c1ccc(Cl)cc1` (stereo not given): 10.7%; for `COc1cc(CN2CCN(Cc3ccc(C)cc3C)CC2)cc(OC)c1OC`: -0.9%. As for `Cn1c(=O)n(C)c2cc(/C=C3/C(=O)NN(c4ccccc4)C3=O)ccc21`, the displacement amounted to 10.6%.

For the compound `COc1ccc(NC2=C(Cl)C(=O)N(c3ccccc3Cl)C2=O)c(OC)c1`, the displacement was 8.7%. `C(=Nc1ccc2c(c1)ncn2-c1ccccc1)c1c[nH]c2ccccc12`: the displacement stood at 11.4%. In the case of `CC1=NNC(=O)C1CC(=O)N/N=C/c1cccc(OCc2ccccc2)c1` (stereo not given), the displacement was -8.1%. For `O=C(CSc1nc2ccccc2[nH]1)NCc1ccccc1`, the displacement is -11.6%. Regarding `CCN(CC)C(=O)CN(c1ccc(C)cc1)S(C)(=O)=O`, the displacement stood at 1.4%. Consider `CN(C)c1ccc(/C=C/C(=O)c2c(-c3ccccc3)c3cc(Cl)ccc3[nH]c2=O)cc1`, for which the displacement is 11.2%.

For the compound `O=C(NCCc1cccc(Cl)c1)c1cccc([N+](=O)[O-])c1`, the displacement turned out to be 14.1%. Take `COc1cccc(N2C(=O)/C(=C/c3ccccc3Cl)SC2=S)c1`: the displacement is 17.6%.

As to `O=C1CC(c2ccccc2)CC2=C1C(c1cccnc1)N(C(=O)c1ccccc1)c1ccccc1N2` (stereo not given), the displacement was -15.8%.

On to `COc1cccc(C2C(C(C)=O)=C(O)C(=O)N2CC2CCCO2)c1` (stereo not given), for which the displacement is -1.4%. `CCc1ccc(/C=N\NC(=O)C2CC(=O)N(c3ccc(OC)cc3)C2)cc1` (stereo not given): the displacement came to 2.1%. With `CC(C)(C)NC(=O)Nc1ccc2nccnc2c1`, the displacement is 14%. For `CN(C)c1ccc(C2/C(=C(\O)c3ccccc3)C(=O)C(=O)N2CCCC(=O)O)cc1` (stereo not given), the displacement was found to be 3%.

On to `O=C1OC(Oc2ccccc2)(c2ccccc2)c2ccccc21` (stereo not given), for which the displacement stood at 23%. Regarding `Cc1cc(Cl)ccc1NS(=O)(=O)c1ccc([N+](=O)[O-])cc1`, the displacement came to 5.2%. The same measure for `CCOC(=O)C1=C(O)/C(=C/c2ccc(-c3ccccc3)cc2)SC1=Nc1ccc(OC)cc1`: -6%; for `O=C(COc1ccccc1Cl)NNC(=O)c1ccc(O)cc1O`: -22.6%. For `Cn1ccnc1SCC(=O)Nc1cccc(C(F)(F)F)c1`, the displacement was 14.7%. As for `O=C(COc1ccccc1[N+](=O)[O-])Nc1cc(Cl)cc(Cl)c1`, the displacement was 11.1%.

As to `COc1cc2ccccc2cc1C(=O)Nc1ccc(Cl)c(Cl)c1`, the displacement was -6%. Next, `COc1ccc(OC)c(S(=O)(=O)NCc2ccco2)c1`: 13.4%; `CC(C)(C)C(=O)NC(=S)N1CCOCC1`: -4.7%; `COc1ccc(C(=O)/C=C/c2cccc(Cl)c2Cl)cc1`: 2.1%. The same measure for `O=C1OCC(CO)(CO)N=C1NNc1ccc([N+](=O)[O-])cc1`: 7.3%. Next, `CC(C(=O)Nc1ccc(I)cc1)N1C(=O)c2ccccc2C1=O` (stereo not given): -5.5%. `COc1ccc(C(=O)Nc2ccc3oc(-c4ccc(OC)c(Cl)c4)nc3c2)cc1Cl`: the displacement came to 49.2%.

Turning to `COc1ccc(C2/C(=C(/O)c3ccccc3)C(=O)C(=O)N2CC2CCCO2)cc1OC` (stereo not given), the displacement was -4.9%.

Turning to `O=[N+]([O-])c1cc(Cl)cc2c1[nH]c1ccc(Cl)cc12`, the displacement was found to be 7.1%. Next, `COc1ccc(Br)cc1CN1CCN(C2CC3CCC2C3)CC1` (stereo not given): -18.2%; `CCOCCOC(=O)c1ccc(NC(=O)c2ccc([N+](=O)[O-])cc2Cl)cc1`: -6.5%.

Consider `COc1cc(C=C2C(=O)NC(=S)NC2=O)cc(Br)c1OCCOc1ccc(C)c(C)c1`, for which the displacement was 8.1%.

For `COc1ccc(C(=O)N2CC3(CCCC3)c3ccccc3C2C)cc1OC` (stereo not given), the displacement is -21.3%. With `CCC(=O)N1c2ccccc2NC2=C(C(=O)CC(c3ccco3)C2)C1c1ccc(N(CC)CC)cc1` (stereo not given), the displacement is -5.8%. Next, `O=C(Cn1c(NCCO)nc2ccccc21)c1ccc(Cl)c(Cl)c1`: -5.9%; `COCCOC(=O)c1c(C)oc2ccc(OCc3c(F)c(F)c(F)c(F)c3F)cc12`: 10.8%. Regarding `O=C(CCN1C(=O)c2ccccc2C1=O)NC1CCCCCC1`, the displacement turned out to be 8.5%.

For the compound `Cc1ccccc1NC(=O)c1c(C)[nH]c(=S)c(C#N)c1-c1cccc(F)c1`, the displacement is -11.1%. The same measure for `COc1cccc(C2NC(=O)NC(C)=C2C(=O)OCCOc2ccccc2)c1OC` (stereo not given): -3.7%; for `Cc1ccc(-c2nc3cc(Cl)ccc3o2)cc1NC(=O)c1ccc(-c2ccc([N+](=O)[O-])cc2)o1`: 0.9%.

On to `COc1cc(C2OCC3(CCC4(COC(c5ccc(O)c(OC)c5)OC4)C3=O)CO2)ccc1O` (stereo not given), for which the displacement turned out to be 11.1%. The same measure for `CC1SC(c2c(Cl)cccc2Cl)N(CCCN(C)C)C1=O` (stereo not given): 2.3%; for `O=S(=O)(/N=C/c1ccc(Br)cc1)c1cccs1`: -4.5%; for `Cc1ccc(C(=O)Nc2ccccc2Oc2ccccc2)o1`: 13.2%.

As for `Cc1ccc(C(=O)N/C(=C\c2ccccc2)C(=O)NCc2ccncc2)cc1`, the displacement came to 5.9%.

Take `COc1ccccc1C(=O)N1CCN(c2nc3ccc([N+](=O)[O-])cc3s2)CC1`: the displacement was -14%.

On to `Cc1cccc(OCC(=O)Nc2ccccc2Cl)c1C`, for which the displacement was -1.5%.

As for `O=C1NC(=O)/C(=C\c2ccc(OCc3ccc(F)cc3)cc2)N1`, the displacement was -34.4%. Consider `CCOC(=O)C1=NN(C(=O)c2ccc([N+](=O)[O-])cc2)C(O)(C(C)(C)C)C1` (stereo not given), for which the displacement was -7.9%.

For the compound `C=CCNC(=O)/C(=C\C=C\C)NC(=O)c1ccccc1`, the displacement was found to be 11.1%. Next, `CS(=O)(=O)N(Cc1ccccc1)c1ccc(C(=O)NCc2ccc(Cl)cc2)cc1`: -5%; `COc1ccc(S(=O)(=O)NC2CCSC2=O)cc1` (stereo not given): -11.6%. On to `CCN(CC)c1ccc(C(=O)Nc2cccc(C)c2C)cc1`, for which the displacement came out at 8%. The same measure for `CC1(C)C(c2ccccc2)=NC(c2ccccc2F)=[N+]1[O-]`: -2.8%; for `O=C(c1cccn1C(O)(C(F)(F)F)C(F)(F)F)C(F)(F)F`: 3.8%. In the case of `Cc1ccc(C(C)C)c(OCCOc2ccccc2/C=C2/SC(=S)N(C)C2=O)c1`, the displacement came to 0.1%. The same measure for `O=C1NC(=S)N/C1=C/c1ccc(OCc2cccc(C(=O)O)c2)cc1`: 11.7%; for `O=C(CSc1nnnn1-c1ccccc1)Nc1ccccc1O`: -4%. Regarding `COc1ccc(NC2CC(=O)N(CCc3ccccc3)C2=O)cc1` (stereo not given), the displacement stood at 15.1%. Next, `O=C(Nc1cccc(-c2csc(-c3ccccc3)n2)c1)c1cc2ccccc2oc1=O`: 11.6%; `COc1cccc(OC)c1C(=O)NNC(=O)c1cccc(C)c1`: -1.3%. As for `Cc1cc(C(=O)N/N=C/c2c(F)cccc2Cl)n[nH]1`, the displacement stood at 0.4%. For the compound `CCc1ccc(C2Nc3cccc4cccc(c34)N2)cc1`, the displacement worked out at 30.8%.

In the case of `CC(C)N1CCC(=NNC(=O)COc2ccc(Cl)cc2Cl)CC1`, the displacement was -7.8%.

On to `COC(=O)c1ccc(C(=O)OC)c(NC(=O)Nc2ccc(Cl)c(Cl)c2)c1`, for which the displacement stood at 1.7%.

Take `COC(=O)c1c(N=CN(C)C)c(C#N)c2n1CCCCC2`: the displacement was determined as 0.3%. Next, `CN(C(=O)c1cccs1)c1ccccc1`: -16.1%. The same measure for `CCOC(=O)c1c(C)[nH]c(/C=C(/C#N)C(N)=NCc2ccccc2)c1O`: 4.3%. In the case of `Fc1cnc(N2CCOCC2)nc1N1CCOCC1`, the displacement was -5.7%. With `Cc1ccc(S(=O)(=O)N(CC(O)CN2CCCCC2)c2cccc3ccccc23)cc1` (stereo not given), the displacement was -3.3%.

On to `COc1ccc(OC)c(/C=N/N=C2\NC(=O)C(C)S2)c1` (stereo not given), for which the displacement was -13.9%. The same measure for `CSc1ccc(S(=O)(=O)N(CC(=O)Nc2c(C)cccc2C)c2ccc(C)cc2)cc1`: 7.9%. As to `Cc1coc2cc3oc(=O)cc(C)c3cc12`, the displacement was -2%. Next, `Cc1nc(SCC(=O)C2CC2)c(C#N)c(C)c1C`: -1.6%; `C=CCN(c1ccccc1C(=O)O)S(=O)(=O)c1ccc(C)cc1`: 1%. Regarding `O=C(Cc1ccccc1)NC(=S)N1CCCc2ccccc21`, the displacement came out at 19.7%. Next, `COC(=O)c1c(C)oc2cc(Br)c(OC)cc12`: 12.7%; `O=C(NCCc1cccc(Cl)c1)c1cccnc1`: 14.8%. Next, `O=C(/C=C/Nc1ccccc1C(F)(F)F)c1ccc(Br)cc1`: -3.8%.

As for `O=C(NCc1ccccn1)Nc1ccc(Cl)cc1`, the displacement was determined as 11.4%. Next, `CCCCCSc1nnc2c(n1)[nH]c1ccc(C)cc12`: 1.8%; `Cc1cc(C)cc(NC2=C(Cl)C(=O)N(c3ccc(Br)cc3)C2=O)c1`: 9%. The same measure for `O=C(Nc1cccnc1)c1cccc([N+](=O)[O-])c1`: -4.6%; for `COc1ccc(CCNC2CC(=O)N(c3ccc(OC)cc3)C2=O)cc1` (stereo not given): 6.4%; for `CCOc1ccc(N=Cc2cc(Cl)ccc2OC)cc1`: 3%. The same measure for `C=C(CC(Cc1ccccc1)C(=O)O)c1ccccc1` (stereo not given): -7.4%; for `CCOP(=O)(OCC)C(C)(CC)NC(=S)Nc1c(C)cc(C)cc1C` (stereo not given): 13.5%. For `Cc1ccc(/C=C/C(=O)NC2CCS(=O)(=O)C2)cc1` (stereo not given), the displacement was -4.5%. Next, `C/C(=C/C(=O)NCc1ccccc1)C(=O)O`: 4.2%; `CCc1cccc(CC)c1NC(=O)c1ccc(-c2ccccc2)cc1`: -4.5%.

With `C=CCOc1ccc(/C=C2\C(=O)N(CCCOC)C(C)=C2C(=O)OC)cc1OC`, the displacement is -4.2%. In the case of `CCOc1ccc(-c2cc(C)n3nc(C(=O)Nc4cc(OC)c(Cl)cc4OC)cc3n2)cc1`, the displacement was -1.3%. Next, `C=CCn1cnnc1C(CCC(C)C)CC(C)(C)O` (stereo not given): 0.3%; `Cc1cc(C)nc(/N=C(/N)Nc2ccccc2[N+](=O)[O-])n1`: -9.6%; `COc1ccc(NC(=O)COc2ccc(Br)c(C)c2)cc1Cl`: -7.9%.

As for `Cc1ccc(OCCOCCOc2ccc(Br)cc2/C=N\NC(=O)c2ccncc2)cc1`, the displacement is -17.9%. The same measure for `CCOC(=O)c1ccc(NC(=O)CCN2C(=O)S/C(=C/c3ccc(OC)c(OC)c3)C2=O)cc1`: 34.5%. As for `COc1ccc(C(=O)Oc2ccc3c(c2)C(C)=CC(C)(C)N3)cc1`, the displacement is -7.9%. As for `CCCOc1ccc(-c2cc(C(=O)NCC3CCCO3)c3ccccc3n2)cc1` (stereo not given), the displacement is 9.2%. The same measure for `O=C(c1cnn2c1NC(c1ccco1)CC2C(F)(F)F)N1CCN(Cc2ccccc2)CC1` (stereo not given): -3.4%. Consider `C=CCN1C(=O)C(Cc2ccc(C)cc2)S/C1=N\N=C\c1ccco1` (stereo not given), for which the displacement was -13.1%.

As for `Cc1ccc(C)c(NC(=O)c2ccc(C)c([N+](=O)[O-])c2)c1`, the displacement was found to be 10.9%. Turning to `COc1ccc(C2CC(c3cccs3)=NN2c2ccc(F)cc2)cc1OC` (stereo not given), the displacement was 9.8%. The same measure for `Oc1oc(-c2ccccc2)nc1C=Nc1ccc(I)cc1`: 2.6%.
